Reference: the supplement of paper PMC9446081
About 220 (0.56%) of roughly 39,000 compounds showed activity. Some of the results follow.

Tested on: Escherichia coli K-12 BW25113
Assay: relative growth (OD600 normalised to plate interquartile mean) (fraction); higher = less growth inhibition, active = 0.2 or less
Settings: 50 µM; LB; incubation time: overnight (16-24 h)
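Also: static incubation at 37 °C against the wild-type strain, values averaged over two biological replicates.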

| Structure (SMILES) | relative growth |
| --- | --- |
| C[C@H]1CN([C@@H](C)CO)S(=O)(=O)c2ccc(Br)cc2O[C@@H]1CN(C)C(=O)C1CCOCC1 | inactive: 1.02 |
| COc1ccc(S(=O)(=O)Nc2ccc3c(c2)C(=O)N([C@@H](C)CO)C[C@H](C)[C@@H](CN(C)Cc2ccc(Cl)c(Cl)c2)OCCCC[C@@H](C)O3)cc1 | inactive: 0.949 |
| Cc1ccc(S(=O)(=O)N(C)C[C@H]2Oc3cc(C#Cc4ccncc4)ccc3S(=O)(=O)N([C@H](C)CO)C[C@H]2C)cc1 | inactive: 1.01 |
| C[C@@H]1CCCCO[C@H](CN(C)Cc2ccccc2)[C@@H](C)CN([C@@H](C)CO)C(=O)c2cc(NC(=O)c3ccccc3)ccc2O1 | inactive: 1.01 |
| C[C@H]1CN([C@@H](C)CO)C(=O)Cc2cc(NC(=O)Cn3cnnn3)ccc2O[C@H]1CN(C)S(=O)(=O)c1ccc(Cl)cc1 | inactive: 1.03 |
| CC(C)(C(=O)c1cccnc1)c1cccnc1 | inactive: 1.06 |
| C[C@H](CO)N1C[C@H](C)[C@@H](CN(C)S(C)(=O)=O)Oc2ccc(NC(=O)Cn3cnnn3)cc2C1=O | inactive: 0.96 |
| Cc1ccc(S(=O)(=O)Nc2ccc3c(c2)C(=O)N([C@H](C)CO)C[C@@H](C)[C@@H](CN(C)Cc2ccccc2)OCCCC[C@H](C)O3)cc1 | inactive: 1.02 |
| Cc1noc(C)c1S(=O)(=O)N(C)C[C@H]1Oc2ccc(NS(=O)(=O)c3ccc(F)cc3)cc2CC(=O)N([C@H](C)CO)C[C@H]1C | inactive: 0.992 |
| C[C@@H]1CN([C@H](C)CO)C(=O)c2cc(NC(=O)Nc3ccccc3)ccc2O[C@@H](C)CCCCO[C@@H]1CN(C)Cc1ccc(C(=O)O)cc1 | inactive: 0.984 |
| C[C@H](CO)N1C[C@H](C)[C@H](CN(C)S(=O)(=O)c2cn(C)cn2)Oc2ncc(-c3ccccc3)cc2C1=O | inactive: 0.988 |
| CO[C@@H]1[C@@H](OC(=O)c2ccc(C)[nH]2)[C@@H](O)[C@@H](Oc2ccc3c(c2C)OC(=O)[C@H](NC(=O)c2[nH]cc(CC(=O)Nc4cc5ccc(O[C@@H]6OC(C)(C)[C@H](OC)[C@@H](OC(=O)c7ccc(C)[nH]7)[C@H]6O)c(C)c5oc4=O)c2C)C3)CC1(C)C | active: 0.0629 |
| Cc1noc(C)c1NC(=O)Nc1ccc2c(c1)C(=O)N([C@@H](C)CO)C[C@@H](C)[C@@H](CN(C)Cc1ccccc1)OCCCC[C@H](C)O2 | inactive: 0.999 |
| O=C(C[C@H]1CC[C@H]2[C@@H](COC[C@@H](O)CN2S(=O)(=O)c2ccccc2)O1)NCCN1CCCC1 | inactive: 1.02 |
| C[C@@H]1CCCCO[C@@H](CN(C)C(=O)C2CCCCC2)[C@@H](C)CN([C@@H](C)CO)C(=O)c2cc(NC(=O)c3ccncc3)ccc2O1 | inactive: 1.01 |
| COc1ccc(S(=O)(=O)Nc2ccc3c(c2)C(=O)N([C@@H](C)CO)C[C@@H](C)[C@H](CN(C)S(=O)(=O)c2ccc(C)cc2)O3)cc1 | inactive: 1.01 |
| Cc1noc(C)c1S(=O)(=O)Nc1ccc2c(c1)CC(=O)N([C@@H](C)CO)C[C@H](C)[C@@H](CN(C)CC1CC1)O2 | inactive: 1.02 |
| O=C(C[C@@H]1CC[C@H]2[C@@H](COC[C@@H](O)CN2S(=O)(=O)c2ccccc2)O1)NCCN1CCCC1 | inactive: 0.972 |
| O=C(c1ccccc1Cl)n1c2ccccc2c2ccccc21 | inactive: 1.02 |

| Structure (SMILES) | relative growth |
| --- | --- |
| NCCCCNCCCN | inactive: 0.98 |
| Cc1noc(C)c1S(=O)(=O)Nc1ccc2c(c1)C(=O)N([C@@H](C)CO)C[C@H](C)[C@H](CN(C)Cc1ccncc1)O2 | inactive: 0.982 |
| C[C@H](CO)N1C[C@H](C)[C@H](CN(C)CC2CCCCC2)Oc2c(NC(=O)c3nc4ccccc4s3)cccc2C1=O | inactive: 1.01 |
| CC(C)N(CCOc1c(Br)cc(/C=C/C(=O)NCCCOc2c(Br)cc(CCN(C)C)cc2Br)cc1Br)C(C)C | inactive: 0.882 |
| Cc1noc(C)c1NC(=O)Nc1cccc2c1O[C@H](CN(C)S(C)(=O)=O)[C@@H](C)CN([C@H](C)CO)C2=O | inactive: 0.981 |
| C[C@@H]1CN([C@H](C)CO)C(=O)c2cc(NC(=O)Nc3ccc(F)cc3)ccc2O[C@@H](C)CCCCO[C@@H]1CN(C)Cc1ccc(C(=O)O)cc1 | inactive: 0.995 |
| C[C@@H]1CN([C@H](C)CO)C(=O)c2cc(NC(=O)C3CCCCC3)ccc2O[C@@H]1CN(C)C(=O)Nc1ccc(C(F)(F)F)cc1 | inactive: 0.989 |
| C[C@H]1CN([C@@H](C)CO)C(=O)CCCn2cc(nn2)CO[C@@H]1CN(C)C(=O)CCCN(C)C | inactive: 0.981 |
| COc1ccc(S(=O)(=O)N2C[C@H](O)COC[C@H]3O[C@@H](CC(=O)NCCCN(C)C)CC[C@@H]32)cc1 | inactive: 0.969 |
| C[C@@H]1CCCCO[C@H](CN(C)Cc2ccc(C(=O)O)cc2)[C@H](C)CN([C@@H](C)CO)C(=O)c2cc(NS(=O)(=O)c3ccc(Cl)cc3)ccc2O1 | inactive: 1.01 |
| C[C@@H]1CN([C@H](C)CO)C(=O)Cc2cc(NC(=O)Cn3cnnn3)ccc2O[C@@H]1CN(C)S(=O)(=O)c1ccc(F)cc1 | inactive: 0.981 |
| C[C@@H]1CN([C@@H](C)CO)C(=O)Cc2cc(NS(=O)(=O)c3cn(C)cn3)ccc2O[C@@H]1CN(C)S(=O)(=O)c1ccc(F)cc1 | inactive: 0.99 |
| C[C@H](NC(=O)C[C@H]1CC[C@@H](NC(=O)CN2CCOCC2)[C@@H](CO)O1)c1ccccc1 | inactive: 1.02 |
| C[C@H]1CN([C@@H](C)CO)C(=O)c2cc(NS(C)(=O)=O)ccc2O[C@@H]1CN(C)C(=O)Nc1ccccc1 | inactive: 1.02 |
| C[C@H](CO)N1C[C@H](C)[C@@H](CN(C)S(=O)(=O)c2cn(C)cn2)Oc2c(NC(=O)c3nc4ccccc4s3)cccc2C1=O | inactive: 1 |
| COc1ccc(CN(C)C[C@H]2Oc3ccc(NC(=O)Nc4ccc(C(F)(F)F)cc4)cc3C(=O)N([C@H](C)CO)C[C@H]2C)cc1 | inactive: 0.987 |
| COCC#Cc1cnc2c(c1)C(=O)N([C@@H](C)CO)C[C@@H](C)[C@@H](CN(C)S(=O)(=O)c1cn(C)cn1)O2 | inactive: 1.01 |
| C[C@@H]1CCCCO[C@H](CN(C)Cc2ccccc2)[C@@H](C)CN([C@@H](C)CO)C(=O)c2cc(NS(=O)(=O)c3ccccc3)ccc2O1 | inactive: 1.01 |
